“And” between values parts separate entries of the source, which are not always exact repeats. Identical values can stand only once. Like-named read-outs stand apart in the source and are kept apart here.
How the values were obtained:
[1] = system: HL-60 (TB) leukemia cells
[2] = system: A549/ATCC non-small cell lung cancer cells
[3] = system: NCI-H23 non-small cell lung cancer cells
[4] = system: NCI-H522 non-small cell lung cancer cells
[5] = system: HL-60 (TB) leukemia cells; assay: cells; conditions: Homo sapiens
SK-MEL-28 melanoma cells [6] = system: SK-MEL-28 melanoma cells
[7] = system: OVCAR-5 ovarian cancer cells
TK-10 renal cancer cells [8] = system: TK-10 renal cancer cells
RPMI-8226 leukemia cells = assay: cells; conditions: Homo sapiens
SR leukemia cells = assay: cells
[9] = system: A549/ATCC non-small cell lung cancer cells; assay: cells; conditions: Homo sapiens
[10] = system: NCI-H460 non-small cell lung cancer cells; assay: cells; conditions: Homo sapiens
[11] = system: NCI-H522 non-small cell lung cancer cells; assay: cells; conditions: Homo sapiens
[12] = system: HCT-15 colon cancer cells; assay: cells; conditions: Homo sapiens, HCT-15
KM12 colon cancer cells = assay: cells; conditions: Homo sapiens
LOX IMVI melanoma cells = assay: cells; conditions: Homo sapiens
MALME-3M melanoma cells = assay: cells; conditions: Homo sapiens
SK-MEL-2 melanoma cells = assay: cells; conditions: Homo sapiens
SK-MEL-28 melanoma cells [13] = assay: cells; conditions: Homo sapiens
SK-MEL-5 melanoma cells = assay: cells; conditions: Homo sapiens
[14] = system: IGR-OV1 ovarian cancer cells; assay: cells; conditions: Homo sapiens
786-0 renal cancer cells = assay: cells; conditions: Homo sapiens
SN12C renal cancer cells = assay: cells; conditions: Homo sapiens
TK-10 renal cancer cells [15] = assay: cells; conditions: Homo sapiens
[16] = system: MDA-MB-231/ATCC breast cancer cells; assay: cells; conditions: Homo sapiens
[17] = system: MDA-MB-435 breast cancer cells; assay: cells; conditions: Homo sapiens, MDA-MB-435
[18] = system: MDA-N breast cancer cells; assay: cells; conditions: Homo sapiens
[19] = system: BT-549 breast cancer cells; assay: cells; conditions: Homo sapiens
[20] = system: T-47D breast cancer cells; assay: cells; conditions: Homo sapiens, T47D

CCCC(=O)NC1CCc2cc(OC)c(OC)c(OC)c2-c2ccc(C(C)=O)cc21 (stereo not drawn)
< 0.01 µM: TGI [1] | GI50 [2] | TGI [4] | GI50 ([5]; HL-60) | GI50 (UO-31 renal cancer cells) | TGI (MCF7 breast cancer cells) | GI50 (RPMI-8226 leukemia cells; RPMI-8226) | GI50 (SR leukemia cells) | GI50 ([10]; NCI-H460) | GI50 ([11]; NCI-H522) | GI50 [12] | GI50 (KM12 colon cancer cells; KM12) | GI50 (LOX IMVI melanoma cells) | GI50 (MALME-3M melanoma cells) | GI50 (SK-MEL-2 melanoma cells; SK-MEL-2) | GI50 (SK-MEL-28 melanoma cells [13]; SK-MEL-28) | GI50 (SK-MEL-5 melanoma cells; SK-MEL-5) | GI50 ([14]; IGROV-1) | GI50 (786-0 renal cancer cells; 786-0) | GI50 (SN12C renal cancer cells) | GI50 ([16]; MDA-MB-231) | GI50 [17] | GI50 [18] | GI50 ([19]; BT-549)
0.0138 µM: GI50 ([9]; A549)
34.5 µM: GI50 (TK-10 renal cancer cells [8])
69.1 µM and > 100 µM: TGI (UO-31 renal cancer cells)
> 100 µM: TGI [2] | CC50 ([5]; HL-60, read-out: LC50) | TGI (SK-MEL-28 melanoma cells [6]) | TGI (UACC-257 melanoma cells) | TGI [7] | TGI (TK-10 renal cancer cells [8]) | CC50 (RPMI-8226 leukemia cells; RPMI-8226, read-out: LC50) | CC50 (SR leukemia cells; Homo sapiens, read-out: LC50) | CC50 ([9]; A549, read-out: LC50) | CC50 ([10]; NCI-H460, read-out: LC50) | CC50 (KM12 colon cancer cells; KM12, read-out: LC50) | CC50 (LOX IMVI melanoma cells; read-out: LC50) | CC50 (MALME-3M melanoma cells; read-out: LC50) | CC50 (SK-MEL-2 melanoma cells; SK-MEL-2, read-out: LC50) | CC50 (SK-MEL-28 melanoma cells [13]; SK-MEL-28, read-out: LC50) | CC50 (SK-MEL-5 melanoma cells; SK-MEL-5, read-out: LC50) | CC50 ([14]; IGROV-1, read-out: LC50) | CC50 (786-0 renal cancer cells; 786-0, read-out: LC50) | CC50 (SN12C renal cancer cells; read-out: LC50) | CC50 (TK-10 renal cancer cells [15]; TK-10, read-out: LC50) | CC50 ([16]; MDA-MB-231, read-out: LC50) | CC50 ([18]; read-out: LC50) | CC50 ([19]; BT-549, read-out: LC50) | GI50 [20]
2.31 µM: CC50 ([11]; NCI-H522, read-out: LC50)
47.3 µM: TGI [3]
26.6 µM: GI50 (TK-10 renal cancer cells [15]; TK-10)
